The source of these data is PubChem BioAssay AID1508642 (National Center for Advancing Translational Sciences (NCATS), 2021).

The structures appear in SMILES notation. Hit rate of the full screen: of about 43,000 compounds, about 200 (0.47%) were called active. Not shown: some 12% with an inconclusive outcome. Calls come from the whole dose curve; as a rule, active = well fitted cell-killing curve with a large enough effect; inconclusive = small, poorly fitted or top-dose-only effect, or effect the other way; inactive = flat fitted curve, though single readings scatter. Some of the results follow.
% is set by controls: 0 for no effect and ±100 for the full control effect.

This assay is described as follows: Cell viability qHTS assay in S16 Pmp22-F2sN cells. Note: nearly all actives have a fitted effect of over 65% in size. As to conditions: S16 Pmp22-F2sN Schwann cells (luciferase reporters placed in the Pmp22 gene) viability, CellTiter-Glo, 24 h; series mostly up to 57.5 µM; activity change, negative = cytotoxicity: at the top concentration. The procedure, abridged:
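Rat S16 Schwann reporter line, 24 h treatment with library compounds delivered at 23 nL per well. Cell viability by CellTiter-Glo luminescence.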
On the technique in general: Quantitative high-throughput screening tests each substance at several concentrations.
In the case of `CCOC(=O)c1cccc(NC(=O)c2ccc3nc(Cc4ccccc4)oc3c2)c1`, the “activity change, negative = cytotoxicity” value was inactive: -3.58%. The value for `O=C(/C=C\c1ccc2c(c1)OCO2)NC1CC(=O)N(c2cccc(F)c2)C1` (stereo unspecified) was inactive: 2.23%; that for `O=C(Nc1c(-c2ccc(F)cc2)nc2ccccn12)c1ccccc1F` was inactive: 2.27%; that for `Cn1c(=O)n(C/C=C/c2ccccc2)c(=O)c2c1nc1n2CCN1c1ccccc1` was inactive: -2.59%. The value for `CCCCOc1ccc(CNC(=O)C2COc3ccc(OC)cc3C2)cc1` (stereo unspecified) was inactive: 6.25%; that for `COc1ccc(S(=O)(=O)N(CC(=O)Nc2cccc(C(F)(F)F)c2)c2ccc(C)cc2)cc1` was inactive: 2.42%; that for `COc1ccc(CN(Cc2ccco2)c2cnc(S(C)(=O)=O)nc2C(=O)Nc2ccc(F)cc2)cc1` was inactive: 2.7%. The value for `COc1ccc(OC)c(-c2csc(-c3c(N)c(C(=O)c4ccccc4)n4ccccc34)n2)c1` was inactive: 3.85%; that for `COC(=O)c1cccnc1-n1c(=O)c2cccnc2n(CC(=O)Nc2c(C)cc(C)cc2C)c1=O` was inactive: 5.77%. As to `O=C(Cn1ncn2nc(-c3cccs3)cc2c1=O)NCc1cccc(Br)c1`, the “activity change, negative = cytotoxicity” value is inactive: -7.84%. As for `Cc1ccc(NC(=O)CN2C(=O)COc3ccc(S(=O)(=O)N4CCCCC4)cc32)cc1N(C)C`, the figure is inactive: 13.7%; as for `CCOc1ccc(C(=O)c2cn(CC(=O)Nc3ccc4c(c3)OCO4)c3ccc(OCC)cc3c2=O)cc1`, inactive: 3.27%; as for `COc1ccc(-n2c(=O)c3c(c4cc(OC)ccc4n3C)n(Cc3cc(C)ccc3C)c2=O)cc1`, inactive: -0.315%. As for `Cc1ccc(C)c(NC(=O)CSc2nc(-c3ccccc3)cc(=O)[nH]2)c1`, the figure is inactive: -10.1%; as for `COc1ccc(N2CCN(S(=O)(=O)c3c(C)[nH]c(=O)[nH]c3=O)CC2)cc1`, inactive: 1.15%; as for `COc1ccc(CCNC(=O)C(=O)Nc2ccc(C)cc2)cc1OC`, inactive: 8.31%. As for `CCN(C(=O)c1cc2cc3ccc(OC)cc3nc2o1)c1cccc(C)c1`, the figure is inactive: -9.38%. In the case of `CC(=O)c1ccc(Oc2nc(C)nc3c2oc2ccccc23)cc1`, the “activity change, negative = cytotoxicity” value is inactive: -5.08%. The value for `COc1ccc(-c2nc(C(=O)Nc3ccc(C(C)=O)cc3)nn2-c2cccc(Cl)c2)cc1` was inactive: 8.57%; that for `COc1ccc(S(=O)(=O)NCCc2csc3nc(-c4ccc(OC)c(OC)c4)nn23)cc1C` was inactive: -2.68%; that for `O=C1CCSc2ccc(S(=O)(=O)Nc3ccc(Cl)c(C(F)(F)F)c3)cc2N1` was inactive: 1.5%. The value for `CC(C)c1ccc(NC(=O)c2ccc(F)c(S(=O)(=O)N3CCCCCC3)c2)cc1` was inactive: -0.452%; that for `Cc1noc(C)c1S(=O)(=O)N1CCC(C(=O)Nc2ccc(Br)cc2)CC1` was inactive: 0.596%. The value for `COc1ccc(CNC(=O)c2nc(Cn3nc(C)c(Br)c3C)no2)cc1OC` was inactive: -6.87%; that for `COc1cc(NC(=O)c2sc3nc4n(c(=O)c3c2C)CCCCC4)cc(OC)c1OC` was inactive: -14%; that for `CCc1ccccc1NC(=O)c1ccc2c(c1)CCN2S(C)(=O)=O` was inactive: -14.5%. In the case of `CC(C)(C)c1ccc(C(=O)Nc2cc(-c3nc4ccccc4o3)ccc2Cl)cc1`, the “activity change, negative = cytotoxicity” value is inactive: 6.94%. As for `CCCCn1c(=O)c2oc3ccccc3c2n(CC(=O)Nc2cccc(Cl)c2C)c1=O`, the figure is inactive: 5.07%; as for `CCc1ccccc1NC(=O)C1CCN(S(=O)(=O)c2ccc3[nH]c(=O)ccc3c2)CC1`, inactive: 1.06%; as for `COc1ccc(C)cc1NC(=O)NCc1cccn1Cc1ccccc1`, inactive: -12.5%. The value for `COc1ccccc1NC(=O)CN(C)S(=O)(=O)c1ccc2c(c1)c(=O)n(C)c(=O)n2C` was inactive: -16.9%; that for `Cc1ccc(CN2CCC(CNC(=O)Nc3cccc(Cl)c3C)C2)cc1` (stereo unspecified) was inactive: -23.3%.

For the compound `Cc1ccc(CCNC(=O)NCc2noc3ccccc23)cc1`, the “activity change, negative = cytotoxicity” value was inactive: 3.05%. On to `O=C(NCc1ccccc1)c1ccc2nc(CCc3ccccc3)oc2c1`, for which the “activity change, negative = cytotoxicity” value is inactive: 0.483%. The value for `CC1CCCN(S(=O)(=O)c2ccc3[nH]c(=O)cc(C(=O)NCCc4ccc(Cl)cc4)c3c2)C1` (stereo unspecified) was inactive: 3%. The value for `Cc1c(CNC2CCCCCC2)c(C(=O)O)c(C)n1Cc1ccc(F)cc1Cl` was inactive: 1.68%. As for `CCOCCCN(C(=O)Nc1ccc(Cl)cc1)C1CCN(C(C)=O)CC1`, the figure is inactive: 10.4%. For the compound `O=C(COc1ccc(Cl)cc1)Nc1nnc2n1CCS2`, the “activity change, negative = cytotoxicity” value is inactive: -2.8%. For `CCc1ccc(-n2c(=O)c3c4c(sc3n(Cc3ccc(C)cc3)c2=O)CCC4)cc1`, the “activity change, negative = cytotoxicity” value was inactive: 19%.

On to `Cc1cc(C)cc(N2CC(c3nc(-c4cccc(Cl)c4)no3)CC2=O)c1` (stereo unspecified), for which the “activity change, negative = cytotoxicity” value is inactive: 2.78%. The value for `COc1ccc(CCNc2nccn(-c3ccc(C)c(C)c3)c2=O)cc1OC` was inactive: -1.95%; that for `CC(=O)N1CCc2cc(S(=O)(=O)NC(Cc3ccccc3)C(=O)Nc3cccc(C)c3)ccc21` (stereo unspecified) was inactive: -15%; that for `Oc1c(C(c2ccc(F)cc2)N2CCOCC2)sc2nc(-c3ccco3)nn12` (stereo unspecified) was inactive: 5.35%.

Turning to `O=C1C(Nc2ccccc2)=CC(c2ccc(Br)cc2)N1c1ccccc1` (stereo unspecified), the “activity change, negative = cytotoxicity” value was inactive: 2.8%. The value for `COc1ccc(NC(=O)[C@H]2O[C@@H]3OC(C)(C)O[C@@H]3[C@H]3OC(C)(C)O[C@H]32)c(OC)c1` was inactive: 11.8%. As for `CCOC(=O)C1CCCN(c2nc3c(S(=O)(=O)c4ccc(CC)cc4)nnn3c3ccsc23)C1` (stereo unspecified), the figure is inactive: 7.31%. Consider `Cc1ccc2c(c1)c1c(c(=O)n(-c3cccc(Cl)c3)c(=O)n1CC(=O)NCC1CCCO1)n2C` (stereo unspecified), for which the “activity change, negative = cytotoxicity” value is inactive: -3.71%. On to `CC(C)CCNC(=O)CN1C(=O)CSc2ccc(S(=O)(=O)N3CCC(C)CC3)cc21`, for which the “activity change, negative = cytotoxicity” value was inactive: 4.08%. Take `CCc1cccc(NC(=O)CCc2nc3cccnc3n2Cc2ccc(OC)cc2)c1`: the “activity change, negative = cytotoxicity” value is inactive: 0.428%. `CCOC(=O)Cc1ccc(NC(=O)Nc2c[nH]c(=O)[nH]c2=O)cc1`: the “activity change, negative = cytotoxicity” value is inactive: -1.57%. As for `Cc1ccccc1OCC(=O)Nc1ccc(-c2nc3ccccc3o2)cc1`, the figure is inactive: 28%; as for `Cn1c(=O)[nH]c(=O)c2c1nc(N1CCOCC1)n2Cc1ccccc1`, inactive: -23%; as for `COc1ccc(NC(=O)Cn2nnc(C(=O)NCc3cccs3)c2N)cc1`, inactive: 4.07%. As for `Cc1ccc(NC(=O)CSc2nc(=O)n(Cc3cccnc3)c3c2CCC3)cc1F`, the figure is inactive: 2.89%. The value for `Cc1ccc(-c2csc(-c3nc(-c4ccc(Br)s4)cs3)n2)cc1` was inactive: -2.75%; that for `CCc1cccc(C)c1NC(=O)c1cc(S(=O)(=O)N(Cc2ccc(C(=O)OC)cc2)Cc2ccc(OC)c(OC)c2)ccc1F` was inactive: -0.112%. As to `Cc1ccccc1Oc1nc2ccccn2c(=O)c1/C=C(\C#N)c1nc2ccccc2[nH]1`, the “activity change, negative = cytotoxicity” value is inactive: 4.61%. Consider `COc1ccc(NC(=O)CN2C(=O)CC(c3ccc(C)c(C)c3)=Nc3ccccc32)cc1OC`, for which the “activity change, negative = cytotoxicity” value was inactive: -29.5%. The value for `COc1ccc(Cc2nc3ccc(C(=O)NCc4ccccc4C)cc3o2)cc1` was inactive: -5.13%. For `CCC(CC)C(=O)Nc1ccc2nc(SCC(=O)N3CCCC3)sc2c1`, the “activity change, negative = cytotoxicity” value is inactive: -12.4%. As for `Cc1ccc(-n2nc(C(=O)Nc3ccc(F)cc3F)c3c4ccccc4n(C)c3c2=O)cc1`, the “activity change, negative = cytotoxicity” value is inactive: -16.1%. The value for `Cc1ccc(C)c(NC(=O)CN(C)S(=O)(=O)c2cccc3nsnc23)c1` was inactive: 3.23%; that for `COc1ccccc1NC(=O)Cn1cc(S(=O)(=O)Cc2ccccc2)c2ccccc21` was inactive: -11.4%; that for `CC(C)(C)C1CCc2c(sc(NC(=O)c3cc4ccccc4c(=O)o3)c2C(N)=O)C1` (stereo unspecified) was inactive: 10.5%. As for `Cc1ccc(C)c(NC(=O)Cn2c(=O)n(CCC(C)C)c(=O)c3cccnc32)c1`, the figure is inactive: -7.19%; as for `CC(=O)c1cccc(NC(=O)C2CCN(S(=O)(=O)c3ccc4c(c3)CCCN4C(C)=O)CC2)c1`, inactive: -19.6%; as for `Cc1ccc(-c2nc(C)c(CCNC(=O)c3cccs3)s2)cc1`, inactive: -4.54%. As for `Cc1ccc(CN2CCCn3nc(C(=O)NCCc4ccccc4C)cc3C2=O)cc1`, the figure is inactive: -5.76%; as for `COc1cc(C(=O)Nc2ccccc2-c2nc(-c3ccccc3)no2)cc(OC)c1OC`, inactive: 0.162%; as for `Cc1c(C(=O)OCc2ccccc2)[nH]c2c1C(=O)CC(c1ccc(C(C)(C)C)cc1)C2` (stereo unspecified), inactive: 0.912%. As for `COc1ccc(Cn2ccc3nc(C)c(C(=O)Nc4ccc(OC)cc4)cc3c2=O)cc1`, the “activity change, negative = cytotoxicity” value is inactive: 2.32%. In the case of `COc1ccc(CNC(=O)C2CCN(S(=O)(=O)c3c(C)noc3/C=C/c3ccccc3F)CC2)cc1`, the “activity change, negative = cytotoxicity” value was inactive: 6.46%. `Cc1cccc(C(=O)OCc2cc(=O)n3ccsc3n2)c1`: the “activity change, negative = cytotoxicity” value is inactive: 34.6%. The value for `CC(=O)Nc1nc2n(n1)C(c1ccc(F)cc1)C=C(c1ccc(Cl)cc1)N2` (stereo unspecified) was inactive: -1.6%; that for `CC(C(=O)NCCSCc1cccc(Cl)c1)N(c1ccccc1)S(C)(=O)=O` (stereo unspecified) was inactive: 25.3%; that for `Cc1ccc(-n2c(C)cc(C(=O)C(=O)Nc3ccccc3)c2C)c(C)c1` was inactive: 1.62%.

Regarding `CCOc1ccc(N2CC(NC(=O)c3ccco3)CC2=O)cc1` (stereo unspecified), the “activity change, negative = cytotoxicity” value is inactive: 1.39%. As for `CC1CCCN(C(=O)c2cc3ccc4cccnc4c3[nH]2)C1` (stereo unspecified), the figure is inactive: -11.6%; as for `Cc1cccc(OCC(=O)Nc2cccc(OCc3cc(=O)n4cccc(C)c4n3)c2)c1`, inactive: -9.33%; as for `O=C(/C=C/c1ccccc1)Nc1cc(-c2nc3cc(Cl)ccc3o2)ccc1Cl`, inactive: -1.03%. As for `Cc1cc2nc(-c3cccc(NC(=O)c4cccc5ccccc45)c3)oc2cc1C`, the figure is inactive: -10.8%; as for `Cc1cc(C)c(NC(=O)Cn2c(=O)c3cccn3c3ccccc32)c(C)c1`, inactive: 6.02%; as for `COc1cccc(-n2ccnc2SCC(=O)Nc2c(C)cc(C)cc2C)c1`, inactive: -3.37%. `CCCCNC(=O)c1ccc2c(c1)N(Cc1ccc(F)cc1)C(=O)c1ccccc1S2=O` (stereo unspecified): the “activity change, negative = cytotoxicity” value is inactive: -22.9%.

`CC(=O)N1c2ccccc2CC1C(=O)N1CCN(c2ccccc2)CC1` (stereo unspecified): the “activity change, negative = cytotoxicity” value is inactive: 2.54%. The value for `Cc1ccc(NC(=O)c2c(C)cc(C)nc2SCC(=O)Nc2ccc(Br)cc2)cc1` was inactive: 0.686%. As for `COc1ccc(N(Cc2cc3ccccc3[nH]c2=O)C(=O)c2cccc(Cl)c2)cc1`, the figure is inactive: 17.1%; as for `CCOC(=O)Cc1ccc(NC(=O)NCc2c(-n3cccc3)sc3c2CCCC3)cc1`, inactive: -12.5%.

As to `CCCCN1CC(c2nc3ccccc3n2CCCCOc2cc(C)ccc2C)CC1=O` (stereo unspecified), the “activity change, negative = cytotoxicity” value was inactive: -7.63%. The value for `O=C(CS(=O)(=O)c1cccc2nsnc12)Nc1ccccc1Cl` was inactive: -0.375%.

As to `O=S(=O)(c1ccc(OC(F)(F)F)cc1)N1CCC(c2nnnn2-c2ccc(F)cc2)CC1`, the “activity change, negative = cytotoxicity” value was inactive: -0.659%.

For `Cc1ccc(NC(=O)c2nc(S(C)(=O)=O)ncc2N(Cc2ccc(C(C)(C)C)cc2)Cc2ccco2)cc1C`, the “activity change, negative = cytotoxicity” value was inactive: 1.53%. As for `CN(C(=O)CCc1nc(-c2ccccc2F)no1)c1ccc(Cl)cc1`, the figure is inactive: -6.99%; as for `CCN1CCSc2ccc(C(=O)NCc3ccc(OC(C)C)cc3)cc21`, inactive: 10.8%; as for `CCn1cc(C(=O)OCC(=O)Nc2ccc(C)c(Cl)c2)c(=O)c2ccc(C)nc21`, inactive: 10.3%.

Regarding `COc1ccc(-c2noc(CSCC(=O)Nc3cc(OC)c(OC)c(OC)c3)n2)cc1OC`, the “activity change, negative = cytotoxicity” value is inactive: -1.64%.
